The other results are listed elsewhere or left out.

For the experiment, the target named is T1, MBP-FoxP1dN (Mus musculus, UniProt P58462 326-579).
T1 sequence: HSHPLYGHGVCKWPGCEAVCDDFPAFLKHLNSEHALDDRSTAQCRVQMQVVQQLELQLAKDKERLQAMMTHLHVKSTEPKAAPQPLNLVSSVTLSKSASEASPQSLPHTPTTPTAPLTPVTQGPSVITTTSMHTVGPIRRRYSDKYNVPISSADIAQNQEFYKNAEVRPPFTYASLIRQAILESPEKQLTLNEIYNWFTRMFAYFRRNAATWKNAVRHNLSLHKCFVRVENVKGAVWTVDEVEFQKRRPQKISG
As to the kind of experiment: PD-seq (MBP pull-down with sequencing); 20 mM Tris-HCl pH 7.5, 100 mM NaCl, 1.5 mM MgCl2, 0.4 uM protein, 0.1 uM dsDNA library, 30 min, room temperature, amylose pull-down; high values mean tight binding. Particulars: protein: recombinant; tags: His6-MBP; chain copies: 2; dsDNA, one strand shown. In short, it runs like this:
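His6-MBP-tagged mouse FoxP3 or FoxP1 fragment lacking the N-terminus, expressed in E. coli, was mixed at 0.4 µM with 0.1 µM Klenow-filled double-stranded degenerate DNA library. Incubation was 30 min at room temperature in Tris pH 7.5 buffer with NaCl and MgCl2. Complexes were caught on amylose resin and washed three times; DNA was released with proteinase K, PCR-barcoded and Illumina-sequenced. Binding is reads-per-million enrichment, pull-down over input, with replicates pooled.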
For the sequence “GATGATTGTTCTCCCAGCTGATGAATTCTCTGCCTCGAGTAAACAAATTTTCCTAATCTTTCTGTTCAAGCGCCATCTAC”, the binding signal is 0.82 RPM ratio (pull-down/input).
To “GATGATTGTTCTCCCAGCTGATGAATTGACGATCTCGAGTAAACAAATTTTCCTAATCTTTCTGTTCAAGCGCCATCTAC” belongs 1.04 RPM ratio (pull-down/input).
To “GATGATTGTTCTCCCAGCTGATGAATTGAAACGCTCGAGTAAACAAATTTTCCTAATCTTTCTGTTCAAGCGCCATCTAC” belongs 0.86 RPM ratio (pull-down/input).
To “GATGATTGTTCTCCCAGCTGATGAATTATAACATTCGAGTAAACAAATTTTCCTAATCTTTCTGTTCAAGCGCCATCTAC” belongs 1.27 RPM ratio (pull-down/input).
Turning to “GATGATTGTTCTCCCAGCTGATGAATTTTAACGTTCGAGTAAACAAATTTTCCTAATCTTTCTGTTCAAGCGCCATCTAC”, the binding signal is 0.849 RPM ratio (pull-down/input).
As for “GATGATTGTTCTCCCAGCTGATGAATTTAGCTAATCGAGTAAACAAATTTTCCTAATCTTTCTGTTCAAGCGCCATCTAC”, the binding signal was 1.09 RPM ratio (pull-down/input).
Then “GATGATTGTTCTCCCAGCTGATGAATTGGTGGTGTCGAGTAAACAAATTTTCCTAATCTTTCTGTTCAAGCGCCATCTAC”, with 0.948 RPM ratio (pull-down/input); and “GATGATTGTTCTCCCAGCTGATGAATTTGTCCGTTCGAGTAAACAAATTTTCCTAATCTTTCTGTTCAAGCGCCATCTAC”, with 1.03 RPM ratio (pull-down/input); and “GATGATTGTTCTCCCAGCTGATGAATTGAAATCATCGAGTAAACAAATTTTCCTAATCTTTCTGTTCAAGCGCCATCTAC”, with 0.994 RPM ratio (pull-down/input).
Then “GATGATTGTTCTCCCAGCTGATGAATTAGTGGACTCGAGTAAACAAATTTTCCTAATCTTTCTGTTCAAGCGCCATCTAC”, with 0.903 RPM ratio (pull-down/input).
On to “GATGATTGTTCTCCCAGCTGATGAATTCACGAACTCGAGTAAACAAATTTTCCTAATCTTTCTGTTCAAGCGCCATCTAC”, for which the binding signal is 0.818 RPM ratio (pull-down/input).
To “GATGATTGTTCTCCCAGCTGATGAATTGTCAAGATCGAGTAAACAAATTTTCCTAATCTTTCTGTTCAAGCGCCATCTAC” belongs 1.03 RPM ratio (pull-down/input).
To “GATGATTGTTCTCCCAGCTGATGAATTCCCCTCATCGAGTAAACAAATTTTCCTAATCTTTCTGTTCAAGCGCCATCTAC” belongs 0.862 RPM ratio (pull-down/input); to “GATGATTGTTCTCCCAGCTGATGAATTGCCACGCTCGAGTAAACAAATTTTCCTAATCTTTCTGTTCAAGCGCCATCTAC”, 0.965 RPM ratio (pull-down/input); to “GATGATTGTTCTCCCAGCTGATGAATTTAGTTCTTCGAGTAAACAAATTTTCCTAATCTTTCTGTTCAAGCGCCATCTAC”, 0.97 RPM ratio (pull-down/input).
To “GATGATTGTTCTCCCAGCTGATGAATTGGTAAGGTCGAGTAAACAAATTTTCCTAATCTTTCTGTTCAAGCGCCATCTAC” belongs 0.881 RPM ratio (pull-down/input); to “GATGATTGTTCTCCCAGCTGATGAATTTAACCGCTCGAGTAAACAAATTTTCCTAATCTTTCTGTTCAAGCGCCATCTAC”, 0.857 RPM ratio (pull-down/input).
Consider “GATGATTGTTCTCCCAGCTGATGAATTGTCCCACTCGAGTAAACAAATTTTCCTAATCTTTCTGTTCAAGCGCCATCTAC”, for which the binding signal is 0.967 RPM ratio (pull-down/input).
Then “GATGATTGTTCTCCCAGCTGATGAATTCCTTATCTCGAGTAAACAAATTTTCCTAATCTTTCTGTTCAAGCGCCATCTAC”, with 0.825 RPM ratio (pull-down/input); and “GATGATTGTTCTCCCAGCTGATGAATTCAAGCCCTCGAGTAAACAAATTTTCCTAATCTTTCTGTTCAAGCGCCATCTAC”, with 0.749 RPM ratio (pull-down/input); and “GATGATTGTTCTCCCAGCTGATGAATTTGGGATGTCGAGTAAACAAATTTTCCTAATCTTTCTGTTCAAGCGCCATCTAC”, with 0.922 RPM ratio (pull-down/input).
To “GATGATTGTTCTCCCAGCTGATGAATTACTGCCCTCGAGTAAACAAATTTTCCTAATCTTTCTGTTCAAGCGCCATCTAC” belongs 0.944 RPM ratio (pull-down/input); to “GATGATTGTTCTCCCAGCTGATGAATTAAAGAGTTCGAGTAAACAAATTTTCCTAATCTTTCTGTTCAAGCGCCATCTAC”, 0.941 RPM ratio (pull-down/input); to “GATGATTGTTCTCCCAGCTGATGAATTGTAGATATCGAGTAAACAAATTTTCCTAATCTTTCTGTTCAAGCGCCATCTAC”, 1.09 RPM ratio (pull-down/input).
Then “GATGATTGTTCTCCCAGCTGATGAATTTTACAGGTCGAGTAAACAAATTTTCCTAATCTTTCTGTTCAAGCGCCATCTAC”, with 0.759 RPM ratio (pull-down/input); and “GATGATTGTTCTCCCAGCTGATGAATTCCAGGGGTCGAGTAAACAAATTTTCCTAATCTTTCTGTTCAAGCGCCATCTAC”, with 0.771 RPM ratio (pull-down/input); and “GATGATTGTTCTCCCAGCTGATGAATTAGAGTGGTCGAGTAAACAAATTTTCCTAATCTTTCTGTTCAAGCGCCATCTAC”, with 0.915 RPM ratio (pull-down/input).
“GATGATTGTTCTCCCAGCTGATGAATTCCCGCAATCGAGTAAACAAATTTTCCTAATCTTTCTGTTCAAGCGCCATCTAC”: the binding signal is 1.08 RPM ratio (pull-down/input).
In the case of “GATGATTGTTCTCCCAGCTGATGAATTCAGGTAGTCGAGTAAACAAATTTTCCTAATCTTTCTGTTCAAGCGCCATCTAC”, the binding signal was 0.956 RPM ratio (pull-down/input).
As to “GATGATTGTTCTCCCAGCTGATGAATTGGTCACCTCGAGTAAACAAATTTTCCTAATCTTTCTGTTCAAGCGCCATCTAC”, the binding signal was 0.86 RPM ratio (pull-down/input).
To “GATGATTGTTCTCCCAGCTGATGAATTGTGGCGATCGAGTAAACAAATTTTCCTAATCTTTCTGTTCAAGCGCCATCTAC” belongs 1.03 RPM ratio (pull-down/input); to “GATGATTGTTCTCCCAGCTGATGAATTTTACGGGTCGAGTAAACAAATTTTCCTAATCTTTCTGTTCAAGCGCCATCTAC”, 0.795 RPM ratio (pull-down/input).

Values taken from paper PMC12820563, “FoxP3 forms a head-to-head dimer in vivo and stabilizes its multimerization on adjacent microsatellites”.
